# Results from the supplement of paper PMC8728848.
# This is one part of the list.
# B1: Cohesin-hMARCO (Homo sapiens) (protein)
# chain: LDDLDAVRIKVDTVNAKPGDTVRIPVRFSGIPSKGIANCDFVYSYDPNVLEIIEIEPGDIIVDPNPDKSFDTAVYPDRKIIVFLFAEDSGTGAYAITKDGVFATIVAKVKEGAPNGLSVIKFVEVGGFANNDLVEQKTQFFDGGANVGDTTEPATPTTPVTTPTTTDDLDAASVRIVGSSNRGRAEVYYSGTWGTICDDEWQNSDAIVFCRMLGYSKGRALYKVGAGTGQIWLDNVQCRGTESTLWSCTKNSWGHHDCSHEEDAGVECSVHHHHHH
# Assays:
# Assay in all cases: glycan array binding signal (z-score within array); higher = stronger binding
# Conditions in all cases: glycan notation: IUPAC condensed, linker removed
# Neu5Ac(a2-8)Neu5Ac = biological target: Neu5Ac(a2-8)Neu5Ac
# Method in brief: (§1)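 Glycan array binding is given as a within-array Z-score, which can be read as non-binding when negative. The arrays, 3228 of them, came from the Consortium for Functional Glycomics database and were retained only where the protein sequence was available. Z-scores were averaged across arrays of the same protein sequence at different concentrations or buffers and across linkers.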
# [1] = biological target: Neu5Ac(a2-8)Neu5Ac(a2-3)Gal(b1-3)GalNAc(b1-4)[Neu5Ac(a2-3)]Gal(b1-4)Glc
# Method in brief: as §1
# [2] = biological target: Neu5Ac(a2-8)Neu5Ac(a2-3)Gal(b1-3)GalNAc(b1-4)[Neu5Ac(a2-8)Neu5Ac(a2-3)]Gal(b1-4)Glc
# Method in brief: as §1
# [3] = biological target: Neu5Ac(a2-8)Neu5Ac(a2-3)Gal(b1-4)Glc
# Method in brief: as §1
# [4] = biological target: Neu5Ac(a2-8)Neu5Ac(a2-3)Gal(b1-4)GlcNAc
# Method in brief: as §1
# [5] = biological target: Neu5Ac(a2-8)Neu5Ac(a2-3)[Gal(b1-3)GalNAc(b1-4)]Gal(b1-4)Glc
# Method in brief: as §1
# [6] = biological target: Neu5Ac(a2-8)Neu5Ac(a2-3)[GalNAc(b1-4)]Gal(b1-4)Glc
# Method in brief: as §1
# [7] = biological target: Neu5Ac(a2-8)Neu5Ac(a2-8)Neu5Ac
# Method in brief: as §1
# [8] = biological target: Neu5Ac(a2-8)Neu5Ac(a2-8)Neu5Ac(a2-3)Gal(b1-4)Glc
# Method in brief: as §1
# [9] = biological target: Neu5Ac(a2-8)Neu5Ac(a2-8)Neu5Ac(a2-3)[Gal(b1-3)GalNAc(b1-4)]Gal(b1-4)Glc
# Method in brief: as §1
# [10] = biological target: Neu5Ac(a2-8)Neu5Ac(a2-8)Neu5Ac(a2-3)[GalNAc(b1-4)]Gal(b1-4)Glc
# Method in brief: as §1
# [11] = biological target: Neu5Ac(a2-8)Neu5Ac(a2-8)Neu5Ac(a2-8)Neu5Ac(a2-3)[GalNAc(b1-4)]Gal(b1-4)Glc
# Method in brief: as §1
# [12] = biological target: Neu5Ac(a2-8)Neu5Gc(a2-3)Gal(b1-4)GlcNAc
# Method in brief: as §1
# [13] = biological target: Neu5Ac(b2-6)Gal(b1-4)GlcNAc
# Method in brief: as §1
# Neu5Ac(b2-6)GalNAc = biological target: Neu5Ac(b2-6)GalNAc
# Method in brief: as §1
# [14] = biological target: Neu5Ac9Ac(a2-3)Gal(b1-3)GlcNAc
# Method in brief: as §1
# [15] = biological target: Neu5Ac9Ac(a2-3)Gal(b1-4)GlcNAc
# Method in brief: as §1
# [16] = biological target: Neu5Ac9Ac(a2-6)Gal(b1-4)GlcNAc
# Method in brief: as §1
# [17] = biological target: Neu5Gc(a2-3)Gal(b1-3)GlcNAc
# Method in brief: as §1
# [18] = biological target: Neu5Gc(a2-3)Gal(b1-3)[Fuc(a1-4)]GlcNAc
# Method in brief: as §1
# Neu5Gc(a2-3)Gal(b1-4)Glc = biological target: Neu5Gc(a2-3)Gal(b1-4)Glc
# Method in brief: as §1
# [19] = biological target: Neu5Gc(a2-3)Gal(b1-4)GlcNAc
# Method in brief: as §1
# [20] = biological target: Neu5Gc(a2-3)Gal(b1-4)GlcNAc(b1-3)Gal(b1-4)GlcNAc(b1-2)Man(a1-3)[Neu5Gc(a2-3)Gal(b1-4)GlcNAc(b1-3)Gal(b1-4)GlcNAc(b1-2)Man(a1-6)]Man(b1-4)GlcNAc(b1-4)GlcNAc
# Method in brief: as §1
# [21] = biological target: Neu5Gc(a2-3)Gal(b1-4)[Fuc(a1-3)]GlcNAc
# Method in brief: as §1
# [22] = biological target: Neu5Gc(a2-6)Gal(b1-4)GlcNAc
# Method in brief: as §1
# Neu5Gc(a2-6)GalNAc = biological target: Neu5Gc(a2-6)GalNAc
# Method in brief: as §1
# [23] = biological target: Neu5Gc(a2-8)Neu5Ac(a2-3)Gal(b1-4)GlcNAc
# Method in brief: as §1
# [24] = biological target: Neu5Gc(a2-8)Neu5Gc(a2-3)Gal(b1-4)GlcNAc
# Method in brief: as §1
# [25] = biological target: Neu5Gc(a2-8)Neu5Gc(a2-3)Gal(b1-4)GlcNAc(b1-3)Gal(b1-4)GlcNAc
# Method in brief: as §1
# [26] = biological target: Neu5Gc(a2-8)Neu5Gc(a2-6)Gal(b1-4)GlcNAc
# Method in brief: as §1
# [27] = biological target: Neu5Gc(b2-6)Gal(b1-4)GlcNAc
# Method in brief: as §1
binder,measurement,setting,value
B1,glycan array binding signal (z-score),Neu5Ac(a2-8)Neu5Ac,-0.288
same,glycan array binding signal (z-score),[1],0.082
same,glycan array binding signal (z-score),[2],-0.482
same,glycan array binding signal (z-score),[3],-0.452
same,glycan array binding signal (z-score),[4],-0.083
same,glycan array binding signal (z-score),[5],-0.35
same,glycan array binding signal (z-score),[6],-0.001
same,glycan array binding signal (z-score),[7],-0.517
same,glycan array binding signal (z-score),[8],-0.365
same,glycan array binding signal (z-score),[9],-0.494
same,glycan array binding signal (z-score),[10],-0.172
same,glycan array binding signal (z-score),[11],0.16
same,glycan array binding signal (z-score),[12],-0.15
same,glycan array binding signal (z-score),[13],-0.139
same,glycan array binding signal (z-score),Neu5Ac(b2-6)GalNAc,-0.413
same,glycan array binding signal (z-score),[14],4.33
same,glycan array binding signal (z-score),[15],-0.53
same,glycan array binding signal (z-score),[16],-0.071
same,glycan array binding signal (z-score),[17],-0.086
same,glycan array binding signal (z-score),[18],0.113
same,glycan array binding signal (z-score),Neu5Gc(a2-3)Gal(b1-4)Glc,-0.403
same,glycan array binding signal (z-score),[19],0.228
same,glycan array binding signal (z-score),[20],0.016
same,glycan array binding signal (z-score),[21],-0.396
same,glycan array binding signal (z-score),[22],-0.212
same,glycan array binding signal (z-score),Neu5Gc(a2-6)GalNAc,0.543
same,glycan array binding signal (z-score),[23],-0.309
same,glycan array binding signal (z-score),[24],-0.422
same,glycan array binding signal (z-score),[25],0.265
same,glycan array binding signal (z-score),[26],-0.21
same,glycan array binding signal (z-score),[27],-0.376
